Experimental data published in the antibiotic and cytotoxicity screens of Wong et al. (2023).
The other results are listed elsewhere or left out.

How the values were obtained:
[1] = system: HSkMC (human skeletal muscle cells); experiment: cytotoxicity call (relative viability < 0.9); settings: 10 µM
[2] = system: HepG2; experiment: cytotoxicity call (relative viability < 0.9); settings: 10 µM
[3] = system: S. aureus RN4220; experiment: growth inhibition call (relative growth <= 0.2); settings: 50 µM

CN1CCN(C(=O)C[C@H]2C=C[C@H](NS(=O)(=O)c3cccc(F)c3)[C@@H](CO)O2)CC1
inactive: cytotoxicity call [1] | cytotoxicity call [2] | growth inhibition call [3]

Cc1ccc(S(=O)(=O)NCC[C@H]2CC[C@H](NS(=O)(=O)c3ccccc3Cl)[C@@H](CO)O2)cc1
inactive: cytotoxicity call [1] | cytotoxicity call [2] | growth inhibition call [3]

Cc1noc(C)c1NC(=O)N(C)C[C@H]1OCCCC[C@@H](C)Oc2ccc(NS(=O)(=O)c3ccccc3)cc2C(=O)N([C@@H](C)CO)C[C@H]1C
inactive: cytotoxicity call [1] | cytotoxicity call [2] | growth inhibition call [3]

Nc1ncnc2[nH]cnc12
inactive: cytotoxicity call [1] | cytotoxicity call [2] | growth inhibition call [3]

Nn1cc(Br)c(=O)[nH]c1=O
inactive: cytotoxicity call [1] | cytotoxicity call [2] | growth inhibition call [3]

CN1CCN([C@@H]2CCN(S(C)(=O)=O)[C@H]2Cc2cnn(C)c2)CC1
inactive: cytotoxicity call [1] | cytotoxicity call [2] | growth inhibition call [3]

C[C@H]1CN([C@@H](C)CO)C(=O)Cc2cc(NS(=O)(=O)c3cn(C)cn3)ccc2O[C@H]1CN(C)C(=O)NC1CCCCC1
inactive: cytotoxicity call [1] | cytotoxicity call [2] | growth inhibition call [3]

COc1ccc([C@H]([C@@H](O)Cc2ccccc2)N(CC#C[C@@H](O)c2ccccc2)[C@@H](Cc2ccccc2)C(OC)OC)cc1
inactive: cytotoxicity call [1] | cytotoxicity call [2] | growth inhibition call [3]

C[C@@H]1CCCCO[C@@H](CN(C)Cc2ccccc2)[C@@H](C)CN([C@@H](C)CO)C(=O)c2cc(NC(=O)CCC(F)(F)F)ccc2O1
inactive: cytotoxicity call [1] | cytotoxicity call [2] | growth inhibition call [3]

C[C@H](CO)N1C[C@H](C)[C@@H](CN(C)Cc2ccc(Cl)c(Cl)c2)Oc2ccc(NC(=O)NC3CCCCC3)cc2C1=O
inactive: cytotoxicity call [1] | cytotoxicity call [2] | growth inhibition call [3]
